From PubChem BioAssay AID624296 (National Center for Advancing Translational Sciences (NCATS), 2012)
Hit rate of the full screen: of about 350,000 compounds, about 9,900 (2.8%) were called active. Inconclusive means that the source gave no clear call. Such entries were picked first, then a sample of the others. Calls come from the whole dose curve; as a rule, active = well fitted activation curve with a large enough effect; inconclusive = small, poorly fitted or top-dose-only effect; inactive = no such curve, though single readings can be large or run the other way. Potencies of inconclusive entries are left out as doubtful fits.

Assay: A quantitative high throughput screen for small molecules that induce DNA re-replication in MCF 10a normal breast cells. For activity, positive = re-replication: % of control where 0% means no effect. Note: nearly all actives have a fitted effect of over 50% in size.
Settings: MCF 10A DNA re-replication, Hoechst nuclear intensity, 48 h; activity, positive = re-replication: at 46.1 µM (top of the series)
Potency is the fitted concentration of half-maximal effect; tags give direction and shape of the fitted curve.

SMILES	Potency	activity, positive = re-replication
CCCCn1c(N)c(N(CCC(C)C)C(=O)c2ccc([N+](=O)[O-])s2)c(=O)[nH]c1=O	active: 23.1 µM	
CC(C)CSC1=NSC2=NC(=O)/C(=C\c3ccccc3)C(=N)N12	active: 14.6 µM	
CC(C)SC1=NC(C)(C)C=C(/C=C/c2c(Cl)cccc2Cl)N1	active: 18.4 µM	
CN(CC(=O)Nc1ccccc1Cl)C(=O)CN1C(=O)NC(c2ccccc2)(c2ccccc2)C1=O		inactive: -11.6%
Cc1scc(C(=O)N/N=C/c2ccsc2)c1C		inactive: -0.143%
CNc1ncc(C(=O)c2ccc(-c3ccccc3)cc2)s1	inconclusive [activator, partial curve, poor fit]	
O=C(NCCCN1CCOCC1)c1cc2ccccc2cc1O	inconclusive [activator, partial curve, poor fit]	
COc1ccccc1NC(=O)CSc1nn2c(=O)c(C)nnc2s1	inconclusive [activator, partial curve, poor fit]	
Cc1ccc(-c2nnc(-c3ccccc3)c(N3CCOCC3)n2)cc1	inconclusive [activator, partial curve, poor fit]	
COC(=O)C1(CC2CC(c3ccccc3)=NO2)CCN(C(=O)OC(C)(C)C)CC1 (stereo not drawn)	inconclusive [activator, full curve, poor fit]	
Cc1ccc(N(C)S(=O)(=O)c2c(C)noc2/C=C/N(C)C)cc1	inconclusive [activator, single point]	
C=C1CCN([C@@H](CC(C)C)C(=O)NCc2ccccc2)S(=O)(=O)c2ccccc21	inconclusive [activator, full curve, poor fit]	
CC(C)[C@H]1COCCS(=O)(=O)N1Cc1ccccc1-c1ccccc1	inconclusive [activator, full curve, poor fit]	
Cc1ccc(NC(=O)NC(=O)COc2c(F)c(F)cc(F)c2F)c(C)c1		inactive: 5.05%
COc1ccc(-n2c(C)cc(C(=O)COC(=O)c3cc(OC)c(OC)cc3NC(=O)c3cccs3)c2C)cc1	inconclusive [activator, single point]	
CCN(CC)S(=O)(=O)c1ccc(NC(=O)C2CCCN(C(=O)c3ccc(Cl)cc3)C2)cc1 (stereo not drawn)	inconclusive [activator, partial curve, poor fit]	
CC(C)(C)CC(C)(C)NC(=S)NC1CCN(Cc2ccccc2)CC1	inconclusive [activator, partial curve, poor fit]	
CC(C)CC(CO)N1CCN(C(=O)c2ccc(C(C)(C)C)cc2)CCC1=O (stereo not drawn)	inconclusive [activator, partial curve]	
COc1ccc(-c2nc3ccccc3[nH]2)cc1		inactive: -1.57%
c1ccc2c(c1)Nc1cc3ccccc3cc1S2	inconclusive [activator, partial curve, poor fit]	
CN1CCN(S(=O)(=O)c2ccc(Br)c3ccccc23)CC1		inactive: 13.1%
Nn1c(=O)[nH]c2c([nH]c3ccccc32)c1=O	inconclusive [activator, partial curve, poor fit]	
Cc1ccc(C2(C(F)(F)F)NC(=O)N3CCN=C3S2)cc1 (stereo not drawn)		inactive: -1.24%

SMILES	Potency	activity, positive = re-replication
O=C(CN1CCC(C(=O)c2ccc(F)cc2)CC1)Nc1ccccc1Cl	inconclusive [activator, single point]	
CC(=O)Oc1ccc2c(=O)c(Oc3ccccc3)coc2c1OC(C)=O	inconclusive [activator, partial curve, poor fit]	
Brc1ccc2c(c1)C(c1cccnc1)=NNC(c1cccs1)=N2		inactive: 25.4%
Cc1ccc(N2C(=O)CC(NNC(=O)Cc3ccc(F)cc3)C2=O)cc1Cl (stereo not drawn)	inconclusive [activator, partial curve, poor fit]	
O=C1NCCSC1c1ccccc1 (stereo not drawn)	inconclusive [activator, single point]	
Cc1sc2ccccc2[n+]1CCC(C)S(=O)(=O)[O-] (stereo not drawn)		inactive: -0.759%
CSCCC(NC(=O)c1ccccc1Br)C(=O)N1CCCCCCC1 (stereo not drawn)		inactive: 1.74%
CCn1cc(C(=O)NCCC(=O)OC)c(=O)c2cc3c(cc21)OCO3		inactive: -4.58%
COc1ccc2c(c1)c(=O)oc1cc(OCC(=O)NC3CC3)ccc12		inactive: -1.85%
O=C(c1ccc(F)cc1)N1CCN(Cc2ccccc2)CC1	inconclusive [activator, partial curve, poor fit]	
CC(C(=O)NCc1ccco1)n1nc(-c2ccccc2)c2cc(Cl)ccc21 (stereo not drawn)	inconclusive [activator, single point]	
Oc1cccc(/C=N/N(Cc2ccccc2)c2ccccc2)c1	inconclusive [activator, single point]	
CC(=O)c1ccccc1OC(=O)COc1ccc([N+](=O)[O-])cc1		inactive: -2.11%
CC(C)SC1=NC(C)(C)C=C(/C=C/c2ccc(Cl)cc2Cl)N1	active: 8.2 µM	
Cc1ccc(N(C)S(=O)(=O)c2ccc(-c3cnc(C4CC4)o3)cc2)cc1	inconclusive [activator, full curve, poor fit]	
O=C(c1ccc(Cl)s1)N1CCN(c2ncccn2)CC1		inactive: -3.03%
C#CCOCCOCCOCCNc1nc(N2CCN(C(=O)CCCCCCCCCCNC(=O)[C@H](CCCCN)n3cc(CCO)nn3)CC2)nc(N2CCN(C(=O)CCCCCCCCCCNC(=O)[C@H](CCCCN)n3cc(CCCC(=O)O)nn3)CC2)n1	inconclusive [activator, full curve, poor fit]	
CCN(CC)S(=O)(=O)c1ccc(N2CCOCC2)c(NC(=O)c2cccc3c(=O)c(C)c(-c4ccccc4)oc23)c1	active: 3.66 µM	
COCCn1c(=NC(=O)CSC(C)=O)sc2cc(F)ccc21	inconclusive [activator, partial curve, poor fit]	
CC(OC(=O)c1cccc(S(=O)(=O)N2CCCCC2)c1)C(=O)NC1CCCCC1C (stereo not drawn)	inconclusive [activator, partial curve, poor fit]	
COc1ccc(C)cc1NC(=O)C(Sc1nnnn1C)c1ccccc1 (stereo not drawn)		inactive: -19.2%
COc1cc(C(=O)NC(=S)Nc2ccccc2N2CCCC2)cc(OC)c1OC	inconclusive [activator, full curve, poor fit]	
CCc1ccccc1NC(=O)C/C(C)=N/NC(=O)COc1ccccc1C		inactive: 15.1%

SMILES	Potency	activity, positive = re-replication
Cc1nc([N+](=O)[O-])c(Sc2nc3ccc([N+](=O)[O-])cc3[nH]2)n1Cc1ccccc1	active: 18.4 µM	
O=C(Nc1nnc(-c2ccccn2)o1)c1cccc(Br)c1	inconclusive [activator, single point]	
COCCN(C(=S)Nc1ccccc1C)C(C)c1cccs1 (stereo not drawn)		inactive: 17.7%
O=C(COc1ccc(Cl)cc1)N(Cc1ccccc1)c1ccccn1	inconclusive [activator, partial curve, poor fit]	
Cn1nnnc1SCC(=O)Nc1nc(-c2ccccc2)c(-c2ccccc2)o1	inconclusive [activator, partial curve, poor fit]	
O=C(CSc1nnc(NC(=O)c2ccco2)s1)Nc1ccc(F)cc1	inconclusive [activator, single point]	
O=C(NCc1ccccc1Cl)c1ccccc1Oc1ccccc1	inconclusive [activator, partial curve, poor fit]	
Cc1cc(C)nc(/N=C(\N)Nc2ccc(OCc3ccccc3)cc2)n1	inconclusive [activator, partial curve, poor fit]	
Cc1scc(-c2n[nH]c(=S)n2C(C)c2ccccc2)c1C (stereo not drawn)	active: 10.3 µM	
Cc1ccc2c(CN3CCN(Cc4ccc5c(c4)OCO5)CC3)cc(=O)oc2c1C		inactive: 0.424%
Cc1noc(NS(=O)(=O)c2ccc(NC(=O)CSc3nc4c(cc3C#N)CCC4)cc2)c1C	inconclusive [activator, partial curve]	
Cc1ccc2c(CC(=O)O)coc2c1C		inconclusive: 72.3% [activator]
CCCOc1ccc(Cn2c(=O)oc3ccc(C)cc32)cc1		inactive: 13%
O=C(Nc1ccc(Br)cc1)c1ccc(CSC2=NCCS2)cc1	inconclusive [activator, partial curve, poor fit]	
Cc1cc(C)c2nc(NC(=O)c3cccc(S(=O)(=O)N4CCc5ccccc54)c3)sc2c1	inconclusive [activator, partial curve, poor fit]	
FC(F)(F)Oc1ccc(NC(=S)NCc2ccccc2)cc1	inconclusive [activator, single point]	
CCNc1ccc2noc3c2c1C(=O)c1ccccc1-3	inconclusive [activator, single point]	
COc1ccc(CCNC(=O)C2CC(c3ccccc3[N+](=O)[O-])=NO2)cc1 (stereo not drawn)	inconclusive [activator, single point]	
COc1ccc(C)cc1NC(=O)CN1CCCN(S(=O)(=O)c2ccc(Br)cc2)CC1	inconclusive [activator, partial curve]	
CC1CC2(CCCCC2)N2C(=O)C(=O)c3cccc1c32 (stereo not drawn)	inconclusive [activator, single point]	
CCOc1ccc2[nH]c(C(=O)N/N=C/c3ccc(OC)cc3)cc2c1	inconclusive [activator, partial curve, poor fit]	
O=c1[nH]c(C2CCCCC2)nc2ccccc12		inactive: 0.813%
